Molecules are shown by their SMILES. Hit rate of the full screen: of about 110,000 compounds, about 230 (0.21%) showed an effect of 50% or more. This is one part of the list.

The record followed here is publication PMC6919601, “Identification of Plasmodium dipeptidyl aminopeptidase allosteric inhibitors by high throughput screening” (PLoS ONE, 2019).
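Further: 30 min substrate incubation versus DMSO and 10 µM JCP410 controls.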

In this assay the target is DPAP1 (Plasmodium falciparum, UniProt Q8IIJ9). Put plainly: primary screen, percent inhibition; read by cleavage of a fluorogenic dipeptide substrate; higher = more effect of the substance. Details: species or system P. falciparum D10 trophozoite lysates; single well.
Sequence of DPAP1 (Q8IIJ9 whole entry, looked up): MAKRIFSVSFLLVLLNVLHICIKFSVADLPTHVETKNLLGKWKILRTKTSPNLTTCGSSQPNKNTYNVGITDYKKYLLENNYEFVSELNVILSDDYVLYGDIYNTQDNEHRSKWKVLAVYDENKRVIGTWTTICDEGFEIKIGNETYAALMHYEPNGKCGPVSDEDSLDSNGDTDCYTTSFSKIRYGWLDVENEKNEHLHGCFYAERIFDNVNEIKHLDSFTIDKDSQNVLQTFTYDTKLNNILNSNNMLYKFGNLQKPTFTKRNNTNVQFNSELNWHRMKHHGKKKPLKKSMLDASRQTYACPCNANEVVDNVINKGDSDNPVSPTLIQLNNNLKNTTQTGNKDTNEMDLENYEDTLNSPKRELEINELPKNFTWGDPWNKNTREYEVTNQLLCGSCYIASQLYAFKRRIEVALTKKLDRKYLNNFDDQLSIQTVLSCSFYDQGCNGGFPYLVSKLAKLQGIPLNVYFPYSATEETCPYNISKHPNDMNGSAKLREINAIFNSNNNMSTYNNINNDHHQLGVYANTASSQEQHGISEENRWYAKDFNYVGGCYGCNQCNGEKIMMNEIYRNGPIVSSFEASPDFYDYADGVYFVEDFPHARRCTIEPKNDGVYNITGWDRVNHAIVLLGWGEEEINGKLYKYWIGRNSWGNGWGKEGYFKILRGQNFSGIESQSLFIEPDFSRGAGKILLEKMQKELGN
For `Cc1ccc(Cn2c(C)c3cnn(CC(=O)N4CCCCCC4)c(=O)c3c2C)cc1`, the “% Inhibition @ 10 uM” value was -7.72%.
To `COc1ccc(C(=O)Nc2cc(Cl)ccc2Cl)c(OC)c1` belongs 8.63%; to `O=C1OC(c2cccc3ccccc23)=N/C1=C/c1cccs1`, -5.11%.
Consider `Oc1nc(-c2ccccc2)nc2sc3c(c12)CCCCC3`, for which the “% Inhibition @ 10 uM” value is given as -3.39%.
For `CN(C)CCN1C(C(=O)c2ccccc2)=C(OC(=O)c2ccccc2)c2ccccc2S1(=O)=O`, the “% Inhibition @ 10 uM” value is 2.41%.
`CCN(CC)C(=O)CCNC(=O)Cn1ccc2ccccc2c1=O`: the “% Inhibition @ 10 uM” value is reported as 8.44%.
To `COc1cccc(/C=C2/C(=N)N3N=C(c4ccccc4Cl)SC3=NC2=O)c1O` belongs -7.18%.
The figure for `O=C(Cn1cnc2c(nnn2-c2ccc(F)cc2)c1=O)NC1CCCC1` is -3.94%.
Take `Cc1n[nH]c2c1C(c1ccc(C(C)C)cc1)C(C#N)=C(N)O2` (centres unmarked): the “% Inhibition @ 10 uM” value is recorded as 5.31%.
To `CCN1CC2=C(OC(N)=C(C#N)C2c2ccccc2F)/C(=C/c2ccccc2F)C1` (centres unmarked) belongs 3.05%; to `CC(=O)C1=C(O)C(=O)N(CCCN2CCOCC2)C1c1ccc(F)cc1` (centres unmarked), -3.01%; to `Cc1cc(C)nc(SCCn2c(N3CCOCC3)nc3c2c(=O)[nH]c(=O)n3C)n1`, 4%.
Turning to `O=C(NCCc1nc2ccccc2n1CCCOc1ccccc1)C1CCCCC1`, the “% Inhibition @ 10 uM” value is -1.74%.
The figure for `O=C(COc1ccccc1)n1c2ccccc2c2ccccc21` is 2.38%; for `N#CC1=C(N)Oc2c(c(=O)oc3ccccc23)C1c1cc(Br)cs1` (centres unmarked) it is 0.317%.
To `COc1ccc(Nc2nc(-c3c(C)nc4sccn34)cs2)cc1` belongs -2.71%.
With `CN1CCN(C(=O)c2ccc(COc3cc(Cl)ccc3Cl)o2)CC1`, the “% Inhibition @ 10 uM” value was -1.33%.
To `CCc1ccc(C2c3c(-c4ccccc4O)n[nH]c3C(=O)N2Cc2ccco2)cc1` (centres unmarked) belongs 0.366%; to `COc1cccc(N2C(=O)CC(N3CCC(C)CC3)C2=O)c1` (centres unmarked), -8.46%; to `Oc1oc2ccccc2c2nc(-c3cc(-c4ccccc4)nn3-c3ccccc3)nc1-2`, 0.605%.
The figure for `Cc1cccc(C(=O)Nc2ccc(S(=O)(=O)N3CCCC3)cc2)c1` is 0.0974%; for `COCCN1C(=O)c2ccccc2C(C(=O)NCCCOC(C)C)C1c1cn(C)c2ccccc12` (centres unmarked) it is -2.8%; for `Cc1ccc(C(C)C)cc1OCCCCCN1CCNCC1` it is -7.81%.
As for `COc1ccc2c(CNCCc3ccc(OC)c(OC)c3)c(C(=O)O)n(Cc3ccccc3F)c2c1`, the “% Inhibition @ 10 uM” value is -4.37%.
To `O=C(NCc1ccccc1)Nc1cccc(Cl)c1` belongs 2.47%; to `CCOC(=O)c1c(-n2cccc2)sc2c1CCCC2=O`, 4.44%.
To `COc1cc(NC(=O)c2ccc(Br)o2)ccc1NC(=O)C(C)C` belongs -1.65%; to `CCOc1ccccc1C(=O)N1CCN(c2ccc(Cl)cc2)CC1`, 0.727%; to `N/C(=N\OC(=O)c1ccc(Cl)cc1)c1nonc1N`, -0.615%.
The figure for `COc1cccc(OC)c1C(=O)N1CCN(Cc2ccc(Br)cc2)CC1` is 1.71%.
Turning to `COc1cccc(CNC(=O)C2CCCN(S(=O)(=O)N(C)C3CCCCC3)C2)c1` (centres unmarked), the “% Inhibition @ 10 uM” value is on record as -4.68%.
The figure for `COc1ccc(S(=O)(=O)NCCc2ccco2)cc1OC` is 3.47%.
The figure for `Cc1nnc(SCC(=O)O)n1/N=C/c1cc(Br)ccc1O` is 5.77%.
To `O=C(C1=C(O)C(=O)N(c2cccnc2)C1c1ccc(O)cc1)c1ccc(Br)cc1` (centres unmarked) belongs -16.1%; to `COc1cc(C(C)=O)ccc1OCC(O)CN1CCN(c2cccc(Cl)c2)CC1` (centres unmarked), 1.02%.
`c1cn(CCCNc2ncnc3sc4c(c23)CCCCC4)cn1`: the “% Inhibition @ 10 uM” value is -3.4%.
Regarding `COc1cccc2cc(-c3nc(-c4ccccc4)cs3)c(=O)oc12`, the “% Inhibition @ 10 uM” value is on record as 12.9%.
As for `COc1cccc(NC(=O)c2scc3c2CCCC3)c1`, the “% Inhibition @ 10 uM” value is recorded as -6.36%.
As for `Cc1ccc(C2C(C(=O)O)c3ccccc3C(=O)N2C)c(C)c1` (centres unmarked), the “% Inhibition @ 10 uM” value was found to be 5.12%.
To `CC1(C)CC(NC(=O)c2ccco2)CC(C)(CNC(=O)c2ccco2)C1` (centres unmarked) belongs -2.8%; to `CN1CCN(C2=NC(=O)/C(=C/c3cccc(F)c3)S2)CC1`, -0.48%.
To `O=S(=O)(/N=C1\C=C2N(CCO)CCOC2(O)c2ccccc21)c1ccc(F)cc1` (centres unmarked) belongs 0.0539%; to `COC(=O)C1=CN(C2CCCC2)C=C(C(=O)OC)C1c1ccc(Cl)s1`, -9.5%; to `COCCCNCc1c(C(=O)O)c(C)n(Cc2ccccc2F)c1C`, -3.67%.
Take `Oc1cccnc1CCc1ccccc1`: the “% Inhibition @ 10 uM” value is given as -0.999%.
The figure for `O=C(O)c1nccnc1C(=O)NCc1ccccc1` is 3.96%; for `O=C(CCC1CCCC1)N1CCNCC1` it is -0.962%; for `Fc1ccccc1N1CCN(Cc2ccoc2)CC1` it is -0.828%.
Turning to `CCN(C(=O)/C=C/c1ccccc1)c1ccccc1`, the “% Inhibition @ 10 uM” value is reported as -0.197%.
Consider `Cc1cc(C)n(C(=O)c2cc3c(C)nn(-c4ccccc4)c3s2)n1`, for which the “% Inhibition @ 10 uM” value is -1.68%.
